This assay concerns the target T1, human NPRA (hNPRA) (Homo sapiens, UniProt P16066).
T1 construct: expressed in transfected cells
T1 sequence (P16066 33-1061): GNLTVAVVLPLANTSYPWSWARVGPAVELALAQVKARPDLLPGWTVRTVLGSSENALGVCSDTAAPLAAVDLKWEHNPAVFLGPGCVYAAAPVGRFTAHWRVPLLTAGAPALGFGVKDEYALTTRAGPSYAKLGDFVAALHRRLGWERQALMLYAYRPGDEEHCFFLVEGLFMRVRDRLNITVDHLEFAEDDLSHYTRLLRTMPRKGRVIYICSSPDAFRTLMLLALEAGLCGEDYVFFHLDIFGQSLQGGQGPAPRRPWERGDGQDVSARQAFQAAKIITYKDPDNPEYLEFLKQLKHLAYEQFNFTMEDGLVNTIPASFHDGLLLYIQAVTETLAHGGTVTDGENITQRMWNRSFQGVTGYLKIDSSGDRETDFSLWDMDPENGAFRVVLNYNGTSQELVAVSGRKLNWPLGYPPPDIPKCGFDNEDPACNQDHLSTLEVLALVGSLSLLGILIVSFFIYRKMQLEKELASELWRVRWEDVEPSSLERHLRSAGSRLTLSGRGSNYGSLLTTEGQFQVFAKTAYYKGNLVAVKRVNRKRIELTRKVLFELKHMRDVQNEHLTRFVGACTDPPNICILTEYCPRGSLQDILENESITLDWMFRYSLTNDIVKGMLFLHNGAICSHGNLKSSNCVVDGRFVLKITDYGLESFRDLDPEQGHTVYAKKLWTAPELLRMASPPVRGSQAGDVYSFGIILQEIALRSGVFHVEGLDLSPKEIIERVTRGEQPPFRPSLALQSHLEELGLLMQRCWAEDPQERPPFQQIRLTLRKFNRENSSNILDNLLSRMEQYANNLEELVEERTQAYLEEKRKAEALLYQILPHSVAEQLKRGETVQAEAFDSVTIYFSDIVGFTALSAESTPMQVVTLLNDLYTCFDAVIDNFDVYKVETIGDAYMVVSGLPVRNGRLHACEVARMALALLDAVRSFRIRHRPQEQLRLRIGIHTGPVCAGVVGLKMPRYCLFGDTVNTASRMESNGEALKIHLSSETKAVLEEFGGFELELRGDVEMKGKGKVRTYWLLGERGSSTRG
The assay is described as follows: cGMP quantification assay (HTRF) on stable hNPRA-CHO k1 cells (rcs, ics, pcs samples). The class given is cell-based. Conditions: raw compound samples (rcs) on stable hNPRA-CHO k1 cells; reference TPP-5661 (#117) gives 36%; n.a. = not active. An outline of the steps: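 CHO k1 cells stably expressing human NPRA; stimulated cGMP quantified by competitive HTRF (signal inversely proportional to cGMP). Raw samples screened at two concentrations (5-fold apart) vs reference TPP-5661; isolated (80–0.13 nM, 2.5-fold) and purified samples fitted for EC50, reported as delta log EC50 vs TPP-5661; quadruplicates.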
On the technique in general: In TR-FRET formats the signal depends on donor and acceptor labels being close together.

B1: TPP-5657: “empty” antibody without natriuretic peptide, SEQ ID NO 65 and SEQ ID NO 66; negative control (antibody, listed as Homo sapiens)
heavy: [letters of about 100 residues left out]LTGAEYFQHWGQGTLVTVSS[letters of human IgG1 constant region left out]
light: QSVLTQPPSVSGAPGQRVTISCTGSSSNIGAGYDVHWYQQLPGTAPKLLIYGNSNRPSGVPDRFSGSKSGTSASLAITGLQAEDEADYYCQSYDSSLSGVVFGGGTKLTVLGQPKAAPSVTLFPPSSEELQANKATLVCLISDFYPGAVTVAWKADSSPVKAGVETTTPSKQSNNKYAASSYLSLTPEQWKSHRSYSCQVTHEGSTVEKTVAPTECS
On to B1, for which the activity rcs result is listed as “n.a. (Res signals less than half of the signal of the reference compound TPP-5661 (36%) were assessed as not active (n.a.))”.

These data come from US20250236654A1, “C-TYPE NATRIURETIC PEPTIDE ENGRAFTED ANTIBODIES” (Bayer Aktiengesellschaft, priority 2018, published 2025).
